# Measured values taken from PubChem BioAssay AID686979 (National Center for Advancing Translational Sciences (NCATS), 2013).
# The campaign covered roughly 420,000 compounds. About 50,000 (12%) were called active. Another 26% or so got no clear call; they are omitted. Calls come from the whole dose curve; as a rule, active = well fitted inhibition curve with a large enough effect; inconclusive = small, poorly fitted or top-dose-only effect; inactive = flat fitted curve, though single readings scatter. This is a selection; strong and weak results do not stand in their true shares.
# Test: qHTS for Inhibitors of human tyrosyl-DNA phosphodiesterase 1 (TDP1): qHTS in cells in presence of CPT; note: nearly all actives have a fitted effect of over 55% in size
# Details: chicken DT40 Tdp1-/-;hTDP1 cells + 20 nM CPT, ATP luminescence, 48 h; series mostly up to 46.2 µM; activity change, negative = growth inhibition: at the top concentration
# In short: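 Chicken DT40 Tdp1-/- cells complemented with human TDP1, 400 cells/well, exposed to compounds plus 20 nM camptothecin for at least 48 h at 37 C; viability read as ATP content by CellTiter-Glo luminescence.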
# % is set by controls: 0 for no effect and ±100 for the full control effect; potency is the fitted concentration of half-maximal effect.
SMILES,"activity change, negative = growth inhibition",Potency
COc1ccccc1C(=O)Nc1ccc2c(c1)nc(CN1CCCCC1)n2C,inactive: -26.5%,
O=C1OC(C(O)CO)C(O)=C1O (centres undefined),inactive: 2.02%,
Cc1nc2c3ccccc3nc(NNC(=O)CCC(=O)N3CCN(c4ccccc4F)CC3)n2n1,inactive: -21.5%,
COc1ccccc1C(CNC(=O)c1ccc(-c2ccccc2Cl)o1)N1CCCC1 (centres undefined),,active: 23.1 µM
O=NNc1nc2ccccc2n1Cc1ccccc1,,active: 4.61 µM
O=C(NC1(Cc2ccc(O)cc2)CCCCC1)c1ccccc1,inactive: 14.8%,
CC1CN(S(=O)(=O)c2cccc(C(=O)N(C)C3CCCCC3)c2)CC(C)O1 (centres undefined),,active: 18.4 µM
COc1c2c(nc3occc13)C(CC=C(C)C)(OC)C(=O)C=C2 (centres undefined),inactive: 2.29% [at 9.04 µM],
CC1CCN(S(=O)(=O)c2ccc3c(c2)N(CC(=O)O)C(=O)CO3)CC1,,active: 14.6 µM
CCN1CCN(C(=O)Nc2cc(Cl)ccc2OC)CC1,inactive: 31.9%,
Cc1nc2nc[nH]n2c(=O)c1NC(=O)CC12CC3CC(CC(C3)C1)C2,inactive: -1.91%,
O=C(Nc1ccccc1)C1=C[C@H](c2ccc(C(F)(F)F)cc2)C[C@H](OCCCCO)O1,inactive: -23.4%,
COc1cccc(CN(C)CC(=O)Nc2cc3oc4ccccc4c3cc2OC)c1,,active: 23.1 µM
CN(C1CCCCC1)S(=O)(=O)c1ccc(C(=O)Nc2sc3c(c2C(N)=O)CC(C)(C)NC3(C)C)cc1,inactive: -29.7%,
Cn1c(=O)c(=O)n(C)c2cc(S(=O)(=O)N3CCN(c4ccccc4F)CC3)ccc21,inactive: 2.62%,
CCN(C(=O)CCS(=O)(=O)c1cccc2nsnc12)c1cccc(C)c1,inactive: -7.64%,
COc1ccccc1NC(=O)CCN1C(=O)/C(=C\c2cc(OC)c(OC)c(OC)c2)SC1=S,inactive: -12.9%,
CCC(C(=O)NC1CCCCC1)n1c(SCc2ccc(F)cc2)nc2ccncc21 (centres undefined),inactive: -18.2%,
CC(NC(=O)CN(C)S(=O)(=O)c1ccc2c(c1)c(=O)n(C)c(=O)n2C)c1ccccc1 (centres undefined),inactive: -3.43%,
COc1ccc2nc(N=NC3=C(O)CC(C)(C)CC3=O)sc2c1,,active: 5.17 µM
CCOc1ccc(C2C(C(=O)c3ccc(C)o3)=C(O)C(=O)N2CCCN(CC)CC)cc1 (centres undefined),inactive: -1.79%,
Cc1cc2oc(C(=O)NCCc3ccc(S(N)(=O)=O)cc3)cc(=O)c2cc1C,inactive: -2.33%,
COC(=O)c1cc2occc2n1Cc1nc(-c2ccccc2C)oc1C,inactive: -26.5%,
CCC(C)Sc1nc2c([nH]c3ccccc32)c(=O)n1C (centres undefined),inactive: -2.21%,
COc1ccc(-c2ccc(C(=O)NCCc3ccccc3)c3occc23)c(C)c1,,active: 20.6 µM

SMILES,"activity change, negative = growth inhibition",Potency
CCC(Sc1nc2cc(OC)c(OC)cc2c(=O)n1Cc1ccc(OC)cc1)C(=O)NCCOC (centres undefined),inactive: -1.34%,
Cc1ccc([C@H]2C[C@H](n3cc(COC(=O)c4ccccc4)nn3)[C@@H](O)CN2C(=O)C2CCCCC2)cc1,inactive: -9.12%,
CCN(Cc1ccccc1)C(=O)CCS(=O)(=O)c1ccc2c(c1)CCN2C(C)=O,inactive: -23.4%,
COc1ccc(OCCNC(=O)C2(C)CCN2Cc2ccc3ccccc3c2)cc1 (centres undefined),,active: 29.1 µM
N[C@H](C(=O)O)c1ccc(C(=O)O)c(O)c1,,inactive
CN(Cc1ccccc1)C(=O)CCC1CCN(C(=O)c2ccco2)CC1,inactive: 4.83%,
COc1ccc([C@H]2C[C@H](O)[C@@H](n3cc(-c4ccc(F)cc4)nn3)CN2CC2CCCCC2)cc1,inactive: -61.4%,
CCOC(=O)N1CCN(C(=O)CCN2C(=O)/C(=C\c3ccc(OC)c(OC)c3)SC2=S)CC1,inactive: -0.934%,
O=C(Nc1ccc(F)cc1)Nc1nnc([C@@H]2C[C@H](O)[C@@H](CO)O2)s1,inactive: -10.1%,
CCOc1cc2c(cc1/C=C1/NC(=O)N(CC(=O)OC)C1=O)OCO2,inactive: 33.5%,
C[n+]1ccccc1/C=C/c1c(F)cccc1F,inactive: 10.3%,
COc1ccc(C)cc1NC(=O)CN(C)S(=O)(=O)c1ccc2c(c1)CCCN2C(C)=O,inactive: -20.3%,
CN(C(=O)CSc1nc2ccc(NC(=O)c3ccccc3F)cc2s1)c1ccccc1,,active: 14.6 µM
Cc1cccc(N2CCN(C(=S)Nc3ccc4nc(N5CCN(C)CC5)cc(C)c4c3)CC2)c1C,,active: 1.3 µM
CCNC(=S)N1CCC(C(O)(c2ccccc2)c2ccccc2)CC1,inactive: 5.16%,
CCc1nnc(NS(=O)(=O)c2ccc(NC(=O)c3cccc(Cl)c3)cc2)s1,inactive: 32.5%,
COc1ccc(CN2Cc3cccc4c3[C@@H](CC2=O)[C@H](O)[C@H](O)C4)cc1,inactive: 1.61%,
COc1ccc(C(=O)NC(=S)Nc2ccc(N3CCOCC3)c(Cl)c2)cc1[N+](=O)[O-],,active: 13 µM
CN1CCN2c3ccccc3Cc3ccccc3C2C1 (centres undefined),,inactive
Cc1cc(NS(=O)(=O)c2cn(C)nc2C)no1,inactive: 44.2%,
COC(=O)[C@@H]1C[C@@H]2CC[C@@H](O)C[C@@H]2N1Cc1ccccc1OS(=O)(=O)c1ccc(C)cc1,inactive: 1.74%,
CCCCCCC(=O)N(O)C1CC(=O)N(c2ccc(C)cc2)C1=O (centres undefined),,active: 2.91 µM
Nc1c(C(=O)NCc2ccc3c(c2)OCO3)nnn1CC(=O)Nc1ccc(Br)cc1,inactive: -24.6%,
COc1ccc(N(CC(=O)NCCSc2ccccn2)S(=O)(=O)c2ccccc2)cc1Cl,,active: 16.4 µM
